Measurements: the BET-seq Pho4 binding data (Le et al. 2018)
The list shows a part of the results. These are noisy estimates, calculated here from bound and input reads.

target: T1, Pho4 (S. cerevisiae) (UniProt P07270); assay: relative binding free energy (BET-seq); higher = weaker binding; conditions: reference: library average
T1 sequence: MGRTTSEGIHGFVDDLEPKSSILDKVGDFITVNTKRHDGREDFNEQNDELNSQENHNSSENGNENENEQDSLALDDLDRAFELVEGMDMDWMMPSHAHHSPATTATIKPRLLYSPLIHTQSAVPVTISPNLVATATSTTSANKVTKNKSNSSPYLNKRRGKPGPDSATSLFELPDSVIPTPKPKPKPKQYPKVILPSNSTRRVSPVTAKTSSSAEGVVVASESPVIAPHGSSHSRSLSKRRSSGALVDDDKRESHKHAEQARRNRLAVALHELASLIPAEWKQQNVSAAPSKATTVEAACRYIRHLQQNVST

Sequence | relative binding free energy [kcal/mol]
TGAAGCACGTGCGTGT | -0.24
TGCGGCACGTGGTAGA | -0.2
TAGGCCACGTGATGGT | 0
AGTTGCACGTGTTGAG | 0.07
ACGTTCACGTGAGATT | 0.54
GGTGTCACGTGGACGA | 0.13
GTCTACACGTGTGTAG | 0.23
TATTCCACGTGTGAGG | 0.28
GTTGGCACGTGAGTTC | 0.2
GTACTCACGTGATTGT | 0.4
ATAACCACGTGTTTGT | -0.03
AGTGACACGTGCGGGT | -0.1
GATGTCACGTGCGATA | 0.28
TTGTGCACGTGTGGGG | 0.08
AATAGCACGTGATGAT | 0.14
CTATACACGTGTGGGG | 0.07
TGATGCACGTGTTTCT | -0.09
TTTTACACGTGGGTGG | -0.01
GTATGCACGTGCTGTA | -0.1
GTCTCCACGTGTTGTT | 0.02
GAGTTCACGTGAATGG | 0.42
CAGTTCACGTGTAAGG | 0.42
ATGAACACGTGTGTGT | -0.09

Sequence | relative binding free energy [kcal/mol]
TTACTCACGTGTTGAT | 0.07
TATGGCACGTGGCTGC | -0.2
GAGTGCACGTGGTGGC | 0
GGGAGCACGTGAGCGC | 0.11
TGGATCACGTGAGAGA | 0.58
TAAAACACGTGGGGTG | -0.17
ATGGACACGTGTTGGG | 0.02
TGTTACACGTGTTAGG | 0.11
ATCGGCACGTGTCTGT | -0.13
GATGACACGTGAGGTT | 0.28
TCGGGCACGTGGGAGC | -0.2
GTATCCACGTGAAGGG | 0.34
AGTGGCACGTGTTTCT | -0.05
AGCGTCACGTGTTGAT | 0
TGTCTCACGTGTATGG | 0.14
AAGTACACGTGAGGTG | 0.32
ATGTGCACGTGTGGAA | 0.09
GTATACACGTGGTGGT | 0.01
GTGTGCACGTGGCAGT | -0.15
TTGATCACGTGAGCAG | 0.39
GTTGGCACGTGCCGCG | -0.13
AATTGCACGTGAAGGT | 0.16
TGGACCACGTGGGGTC | -0.18

Sequence | relative binding free energy [kcal/mol]
GGACGCACGTGTAGGG | -0.18
AAGTGCACGTGGGAGA | -0.1
GGAGGCACGTGAGGGG | 0.19
TTGTGCACGTGTTAAC | 0.1
AATGACACGTGAGAGT | 0.21
TAGTACACGTGGTGGC | 0
TACGGCACGTGATGTG | -0.1
TGTTACACGTGACTGG | 0.23
GTTGTCACGTGCAAGT | 0.15
GTGATCACGTGTTGTA | 0.13
TGCTTCACGTGCGGAT | 0.19
GTCAGCACGTGAATGT | 0.27
TGCATCACGTGGGAGT | -0.03
GAGCGCACGTGTGATT | 0.17
TGGGGCACGTGGAGCA | -0.05
GTTGTCACGTGTATAT | 0.16
ATAGTCACGTGTGCGA | 0.17
GGGCACACGTGGTTAG | 0.05
TTAGTCACGTGAAGGA | 0.37
GTTTACACGTGCAGTG | 0.04
TGGCGCACGTGGGACT | -0.11
TATTCCACGTGGTGTG | -0.07
AATTTCACGTGTGAGT | 0.29

Sequence | relative binding free energy [kcal/mol]
GTTGTCACGTGTTCAT | 0.1
GAAGTCACGTGCGGGA | 0.13
GTTAACACGTGATGAT | 0.16
GGGTACACGTGTAAGG | 0.21
TGGATCACGTGATGAG | 0.37
TGGCGCACGTGGGGAC | -0.21
GCATTCACGTGGTAGG | 0.17
GGCGTCACGTGTCGTG | 0.1
GAGGCCACGTGAGGTT | 0.2
GTGGTCACGTGAGGAC | 0.31
TATTGCACGTGTTAAT | 0
GTGTGCACGTGTATCA | -0.03
ATGTCCACGTGTTAGT | 0.1
TAAGTCACGTGAATAG | 0.32
TGATTCACGTGATTTG | 0.31
GAAGACACGTGTATGG | 0.12
TTTGACACGTGTGTTA | 0.11
ATTTTCACGTGGACGT | 0.31
TCGGTCACGTGTTGTA | 0.19
TACCGCACGTGTAGTT | 0.22
TTTGGCACGTGTCCGG | 0.07
TTTAACACGTGGGAGT | 0.04
GGTCACACGTGGGAAG | 0.04

Sequence | relative binding free energy [kcal/mol]
AATATCACGTGATGTG | 0.11
TTCTGCACGTGAGTTT | 0.21
ATTTTCACGTGGAGGA | 0.18
TAGATCACGTGGGAGC | 0.09
CTGTTCACGTGAGGAC | 0.54
GGCTGCACGTGGAGGA | 0.12
TTGAACACGTGTGTTA | 0.15
TATCGCACGTGCGGGT | -0.12
GGGTTCACGTGGTTTA | 0.31
TGTCTCACGTGATGCT | 0.32
GGGTTCACGTGTTTTG | 0.33
TTGGCCACGTGGATAT | 0.02
GAAGGCACGTGTTTGG | -0.03
GGCTGCACGTGCTGGG | 0.1
TTTGGCACGTGTATTA | 0.03
AAGTCCACGTGTGTAG | 0.16
ACGGGCACGTGTTTAT | -0.02
TATTGCACGTGAGGAA | 0
GGAGGCACGTGGTTGT | -0.03
TTCAGCACGTGGAAGG | 0.04
GCGTGCACGTGCAGGG | -0.08
GGTTTCACGTGTAAGT | 0.37
TGTTACACGTGAATTT | 0.33
